# Screen size: about 39,000 compounds; about 220 (0.56%) showed activity. The list shows a part of the results.
# Tested on: Escherichia coli K-12 BW25113
# Assay: relative growth (OD600 normalised to plate interquartile mean) (fraction); higher = less growth inhibition, active = 0.2 or less
# Settings: 50 µM; LB; incubation time: overnight (16-24 h)
# 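Note: static incubation at 37 °C against the wild-type strain, values averaged over two biological replicates.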
row,Compound,relative growth
1,COc1ccc2c3c([nH]c2c1)[C@@H](CO)N(C[C@]13CCN(CCc2ccccc2)CC1)C(=O)CN1CCOCC1,inactive: 1.03
2,CC(C)NC(=O)N(C)C[C@H]1OCCCC[C@H](C)Oc2ccc(NC(=O)Nc3cccc4ccccc34)cc2C(=O)N([C@@H](C)CO)C[C@H]1C,inactive: 1.03
3,CC(C)CC#Cc1cnc2c(c1)C(=O)N([C@H](C)CO)C[C@H](C)[C@@H](CN(C)S(=O)(=O)c1ccccc1)O2,inactive: 1.02
4,Cc1cc(C(=O)Nc2cccc3c2O[C@@H](CN(C)C(=O)Nc2ccccc2)[C@H](C)CN([C@H](C)CO)C3=O)n(C)n1,inactive: 1
5,C[C@@H]1CCCCO[C@H](CN(C)Cc2ccccc2)[C@H](C)CN([C@@H](C)CO)C(=O)c2cc(NC(=O)Nc3cccc4ccccc34)ccc2O1,inactive: 1.02
6,C[C@H]1CN([C@@H](C)CO)C(=O)c2cc(NC(=O)Cc3ccccc3)ccc2O[C@@H]1CN(C)Cc1ccc(-c2ccccc2)cc1,inactive: 0.949
7,Cc1ccc(S[C@]2(C(=O)O)CC(=O)N(Cc3ccccc3Cl)[C@@H]2c2ccc(CO)cc2I)cc1,inactive: 0.861
8,COc1ccc(CN(C)C[C@H]2Oc3ccc(NC(=O)Nc4ccc(C(F)(F)F)cc4)cc3C(=O)N([C@@H](C)CO)C[C@H]2C)cc1,inactive: 0.94
9,CC(C)NC(=O)N(C)C[C@@H]1Oc2ccc(NS(=O)(=O)c3ccc(Cl)cc3)cc2CC(=O)N([C@@H](C)CO)C[C@H]1C,inactive: 1.01
10,COc1ccc(CN(C)C[C@H]2OCCCC[C@H](C)Oc3ccc(NC(=O)Nc4ccc(F)cc4)cc3C(=O)N([C@H](C)CO)C[C@H]2C)cc1,inactive: 0.983
11,C[C@@H]1CN([C@H](C)CO)C(=O)c2cccc(NC(=O)c3cnccn3)c2O[C@H]1CN(C)C(=O)Nc1ccc(F)cc1,inactive: 0.998
12,C[C@@H]1CN([C@H](C)CO)C(=O)c2cc(C#CCN(C)C)cnc2O[C@@H]1CN(C)S(C)(=O)=O,inactive: 0.955
13,C[C@@H]1CN([C@H](C)CO)C(=O)c2cc(C#Cc3ccc(F)cc3)cnc2O[C@H]1CN(C)CC1CCOCC1,inactive: 0.998
14,C=CCOC(=O)[C@@H]1[C@H]2C(=O)O[C@H](c3ccccc3)[C@H](c3ccccc3)N2[C@H](c2ccc(OCCOC(=O)[C@H]3C[C@H]4C(=O)N[C@@H](CCCCN(C)C)C(=O)N4[C@H]3c3cccc(OCCO)c3)cc2)[C@@]12C(=O)Nc1ccccc12,inactive: 0.984
15,O=C(O)CN(CCN(CC(=O)O)CC(=O)O)CC(=O)O,inactive: 0.949
16,C[C@@H]1CN([C@H](C)CO)C(=O)Cc2cc(NC(=O)CCCCCC(=O)Nc3ccccc3N)ccc2O[C@H]1CN(C)S(C)(=O)=O,inactive: 0.979
17,CO[C@@H]1CN(C)C(=O)c2cc(NC(=O)Nc3cccc(Cl)c3)ccc2OC[C@H](C)N(C(=O)Nc2c(C)noc2C)C[C@H]1C,inactive: 0.996
18,C[C@@H]1CN([C@@H](C)CO)C(=O)c2cc(NS(=O)(=O)c3ccc(Cl)cc3)ccc2O[C@H]1CN(C)Cc1ccc(C(F)(F)F)cc1,inactive: 1.04
19,CN1CCN(C(=O)C[C@H]2C=C[C@H](NC(=O)Nc3ccccc3F)[C@@H](CO)O2)CC1,inactive: 0.998
20,CCS(=O)(=O)N1CC[C@]2(CC1)CN([C@H](CO)c1[nH]c3cc(ccc3c12)OC)S(=O)(=O)c1cn(cn1)C,inactive: 0.988

row,Compound,relative growth
1,C[C@H](CO)N1C[C@H](C)[C@@H](CN(C)CC2CCCCC2)Oc2ccc(NC(=O)CCCCCC(=O)Nc3ccccc3N)cc2C1=O,inactive: 0.964
2,C[C@@H]1CN([C@@H](C)CO)C(=O)c2cc(NC(=O)c3ccccc3)ccc2O[C@@H](C)CCCCO[C@@H]1CN(C)Cc1ccc2c(c1)OCO2,inactive: 1.04
3,Cc1ccc(S(=O)(=O)Nc2ccc3c(c2)C(=O)N([C@H](C)CO)C[C@H](C)[C@@H](CN(C)C(=O)C2CCCCC2)OCCCC[C@H](C)O3)cc1,inactive: 0.998
4,COc1ccc(C#Cc2ccc3c(c2)O[C@H](CN(C)C(=O)c2ccccn2)[C@@H](C)CN([C@H](C)CO)S3(=O)=O)cc1,inactive: 0.995
5,C[C@@H]1CCCCO[C@H](CN(C)C(=O)Nc2cccc3ccccc23)[C@H](C)CN([C@@H](C)CO)C(=O)c2cc(NC(=O)Nc3cccc4ccccc34)ccc2O1,inactive: 1.03
6,COCC#Cc1ccc2c(c1)O[C@@H](CN(C)S(=O)(=O)c1ccc(C)cc1)[C@H](C)CN([C@H](C)CO)S2(=O)=O,inactive: 1.02
7,C[C@@H]1CCCCO[C@@H](CN(C)S(=O)(=O)c2cccs2)[C@@H](C)CN([C@@H](C)CO)C(=O)c2cc(NC(=O)Cc3ccccc3)ccc2O1,inactive: 1.02
8,O=C(C[C@H]1C[C@H]2c3cc(NS(=O)(=O)c4ccc(F)cc4)ccc3O[C@H]2[C@@H](CO)O1)NCc1ccc(Oc2ccccc2)cc1,inactive: 1
9,CCCC(=O)Nc1ccc2c(c1)OC[C@H](C)N(S(=O)(=O)c1cn(C)cn1)C[C@H](C)[C@@H](OC)CN(C)C2=O,inactive: 1
10,COc1ccc(NC(=O)N(C)C[C@@H]2Oc3ccc(NC(=O)Cn4cnnn4)cc3CC(=O)N([C@H](C)CO)C[C@@H]2C)cc1,inactive: 0.932
11,CCc1nc2ccc(C(=O)NCc3ccc4c(c3)OCO4)cn2c1N(CC)Cc1cccc(Br)c1,inactive: 1.02
12,Cc1cc(C)c(S(=O)(=O)Nc2cc([C@@H](C(=O)OC(C)C)C(=O)C(F)(F)F)c(O)c3ccccc23)c(C)c1,inactive: 0.962
13,C[C@H]1CCCCO[C@H](CN(C)C(=O)c2ccccc2)[C@@H](C)CN([C@@H](C)CO)C(=O)c2cc(NC(=O)NC3CCCCC3)ccc2O1,inactive: 1.01
14,COc1ccc(S(=O)(=O)Nc2ccc3c(c2)C(=O)N([C@@H](C)CO)C[C@@H](C)[C@@H](CN(C)CC2CC2)O3)cc1,inactive: 1.02
15,C[C@@H]1CN([C@@H](C)CO)C(=O)c2cc(NS(=O)(=O)c3cn(C)cn3)ccc2O[C@H]1CN(C)S(=O)(=O)c1cn(C)cn1,inactive: 0.995
16,O=C(C[C@H]1CC[C@H]2[C@@H](COC[C@H](O)CN2C(=O)c2cccnc2)O1)NCC1CC1,inactive: 1.01
17,Cc1noc(C)c1S(=O)(=O)Nc1ccc2c(c1)CC(=O)N([C@@H](C)CO)C[C@H](C)[C@H](CN(C)S(=O)(=O)c1ccccc1)O2,inactive: 0.97
18,CCCNC(=O)NS(=O)(=O)c1ccc(Cl)cc1,inactive: 1.01
19,Cn1c(=O)n(C)c2cc(CN)ccc21,inactive: 1
20,CCCN(C)C[C@H]1Oc2cc(C#Cc3cccc(OC)c3)ccc2S(=O)(=O)N([C@H](C)CO)C[C@H]1C,inactive: 1.01

row,Compound,relative growth
1,Cc1ccc(S(=O)(=O)N(C)C[C@@H]2Oc3c(NC(=O)Nc4ccc(C(F)(F)F)cc4)cccc3C(=O)N([C@H](C)CO)C[C@H]2C)cc1,inactive: 0.761
2,C[C@H](CO)N1C[C@H](C)[C@H](CN(C)Cc2ccc(Cl)c(Cl)c2)OCCCC[C@H](C)Oc2ccc(NC(=O)Nc3ccc(C(F)(F)F)cc3)cc2C1=O,inactive: 1.08
3,C[C@@H]1CN([C@@H](C)CO)C(=O)c2cc(C#CC3(O)CCCC3)cnc2O[C@H]1CN(C)C(=O)C1CCCCC1,inactive: 0.975
4,Cc1ccc(S(=O)(=O)Nc2cccc3c2O[C@H](CN(C)CC2CC2)[C@H](C)CN([C@@H](C)CO)C3=O)cc1,inactive: 1
5,Cc1ccc(S(=O)(=O)Nc2cccc3c2O[C@H](CN(C)Cc2ccc(Cl)c(Cl)c2)[C@H](C)CN([C@H](C)CO)C3=O)cc1,inactive: 0.986
6,C[C@H](O)C#Cc1ccc2c(c1)O[C@H](CN(C)C(=O)C1CCCCC1)[C@@H](C)CN([C@@H](C)CO)S2(=O)=O,inactive: 0.977
7,Cc1ccc(S(=O)(=O)N[C@@H]2CC[C@H](CC(=O)N3CCC(Cc4ccccc4)CC3)O[C@@H]2CO)cc1,inactive: 0.871
8,C[C@@H]1CCCCO[C@@H](CN(C)C(=O)Nc2ccccc2)[C@@H](C)CN([C@H](C)CO)C(=O)c2cc(NC(=O)Nc3ccc(C(F)(F)F)cc3)ccc2O1,inactive: 1.02
9,Nc1ccccc1Nc1ccccc1,inactive: 0.974
10,COc1ccc(CN(C)C[C@@H]2OCCCC[C@@H](C)Oc3ccc(NC(=O)c4ccccc4)cc3C(=O)N([C@H](C)CO)C[C@@H]2C)cc1,inactive: 0.989
11,C[C@H](CO)N1C[C@H](C)[C@@H](CN(C)C(=O)Nc2ccc(F)cc2)Oc2c(NC(=O)c3ccc(-c4nccs4)cc3)cccc2C1=O,inactive: 0.982
12,C[C@H]1CN([C@@H](C)CO)S(=O)(=O)c2ccc(C#Cc3ccc(F)cc3)cc2O[C@@H]1CN(C)C(=O)c1ccccn1,inactive: 1.03
13,COc1ccnc(C#N)c1,inactive: 0.994
14,O=C(C[C@H]1CC[C@H](NC(=O)c2cccnc2)[C@H](CO)O1)NCCN1CCCCC1,inactive: 1.04
15,Cc1ccc(S(=O)(=O)N(C)C[C@@H]2OCCCC[C@H](C)Oc3ccc(NC(=O)Nc4ccc(F)cc4)cc3C(=O)N([C@H](C)CO)C[C@H]2C)cc1,inactive: 0.983
16,C[C@H]1CN([C@@H](C)CO)C(=O)c2cc(NC(=O)Cn3cnnn3)ccc2O[C@@H]1CN(C)Cc1ccc(C(F)(F)F)cc1,inactive: 0.975
17,O=C(C[C@H]1CC[C@H]2[C@@H](COC[C@H](O)CN2S(=O)(=O)c2ccccc2)O1)NCCN1CCCC1,inactive: 0.996
18,Cc1noc(C)c1S(=O)(=O)Nc1ccc2c(c1)C(=O)N([C@H](C)CO)C[C@@H](C)[C@@H](CN(C)CC1CCCCC1)OCCCC[C@H](C)O2,inactive: 1.01
